# Results taken from the supplement of paper PMC12355420.
# Where a name gives a salt, the structure may show the parent alone. Some of the results follow. Rule as the data show it: active = 0.5 or less and inactive = the rest. Single values are uncertain, as repeats are few or missing.
# Columns and labels:
# Conditions in all cases: 50 µM; 24 h
# [1] = test system: HeLa VPS33A reporter cells; assay: relative cell viability (CellMask signal) vs DMSO (fraction of DMSO); higher = less cytotoxic;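 also: primary screen of an FDA-approved drug library in HeLa reporter cells in 96-well format, CellMask signal normalized to DMSO-treated wells set as 1, under 0.5 deemed highly cytotoxic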
# [2] = test system: HeLa VPS33A R498W KI + HA-SDC1-FLAG; assay: relative GAG core protein HA-SDC1 amount per cell number vs DMSO (fraction of DMSO); higher = more SDC1 (GAG core protein);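 also: HA-SDC1 level read out by In-Cell Western staining with an anti-HA antibody against the N-terminal tag, screening FDA-approved library drugs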
# [3] = test system: HeLa VPS33A KO + NLuc-VPS33A R498W; assay: relative mutant VPS33A R498W amount (NanoLuc luminescence) vs DMSO (fraction of DMSO); HeLa model of a glycosaminoglycan (GAG) storage disease; KI is knock-in and KO knock-out; SDC1 is syndecan 1; higher = higher mutant VPS33A level;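 also: screen of an FDA-approved drug library, NanoLuc luminescence read after lysing the treated cells, taken as a measure of mutant VPS33A protein stability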
SMILES,relative cell viability [1],relative GAG core protein HA-SDC1 amount per cell number [2],relative mutant VPS33A R498W amount [3]
O=[N+]([O-])c1ccc(O)cc1 [4-Nitrophenol],0.966,inactive: 0.887,1.06
CN1CCCN=C1/C=C/c1cccs1 [Pyrantel Pamoate],1.04,inactive: 0.845,1.48
CC(C)(C)NCC(O)COc1cccc2c1CCC(=O)N2 (stereo not drawn) [Carteolol HCl],1.09,inactive: 0.978,1.25
C[N+](C)(C)CCCCCC[N+](C)(C)C [Hexamethonium Bromide],1.15,inactive: 1.24,1.07
CC1=C(CC(=O)O)c2cc(F)ccc2/C1=C\c1ccc([S+](C)[O-])cc1 (stereo not drawn) [Sulindac],0.955,inactive: 0.809,1.01
OC[C@@H](O)[C@@H](O)[C@H](O)[C@@H](O)CO [Sorbitol],1.06,inactive: 0.81,1.3
CC[C@H]1OC(=O)C[C@@H](O)[C@H](C)[C@@H](O[C@@H]2O[C@H](C)[C@@H](O[C@H]3C[C@@](C)(O)[C@@H](O)[C@H](C)O3)[C@H](N(C)C)[C@H]2O)[C@@H](CC=O)C[C@@H](C)C(=O)/C=C/C(C)=C/[C@@H]1CO[C@@H]1O[C@H](C)[C@@H](O)[C@@H](OC)[C@H]1OC [Tylosin tartrate],0.943,inactive: 0.856,1.2
O=c1ccn([C@@H]2O[C@H](CO)[C@@H](O)[C@H]2O)c(=O)[nH]1 [Uridine],1.05,inactive: 0.952,1.21
CC(=O)Oc1cc2c(s1)CCN(C(C(=O)C1CC1)c1ccccc1F)C2 (stereo not drawn) [Prasugrel],0.956,inactive: 0.562,0.562
C=C1CC[C@H](O)C/C1=C/C=C1\CCC[C@]2(C)[C@@H]([C@H](C)CCCC(C)C)CC[C@@H]12 [Vitamin D3],0.933,inactive: 0.62,0.96
Nc1ccn([C@@H]2O[C@H](CO)[C@@H](O)C2(F)F)c(=O)n1 [Gemcitabine HCl],1.05,inactive: 1.05,0.782
CCCc1nc(C(C)(C)O)c(C(=O)OCc2oc(=O)oc2C)n1Cc1ccc(-c2ccccc2-c2nnn[nH]2)cc1 [Olmesartan medoxomil],1.08,inactive: 1.16,1.06
Cc1ccccc1C(=O)O [o-Toluic acid],1.01,inactive: 0.921,1.38
COCCCOc1ccnc(C[S+]([O-])c2nc3ccccc3[nH]2)c1C (stereo not drawn) [Rabeprazole],1.01,inactive: 0.737,1.07
CC(=O)OC/C=C(C)/C=C/C=C(C)/C=C/C1=C(C)CCCC1(C)C [Vitamin A Acetate],0.536,active: 0.351,1.95
CNS(=O)(=O)CCc1ccc2[nH]cc(C3CCN(C)CC3)c2c1 [Naratriptan],1.05,inactive: 0.895,1.4
Cc1ccc(F)c(NC(=O)Nc2ccc(-c3cccc4[nH]nc(N)c34)cc2)c1 [Linifanib (ABT-869)],1.14,inactive: 0.973,5.82
O=c1ccn([C@H]2C[C@H](O)[C@@H](CO)O2)c(=O)[nH]1 [2-Deoxyuridine],1.02,inactive: 0.91,1.41
Nc1nc2[nH]cnc2c(=S)[nH]1 [Thioguanine],0.718,inactive: 0.589,1.64
CNCC[C@@H](Oc1ccccc1C)c1ccccc1 [Atomoxetine HCl],0.982,inactive: 0.644,0.487
COc1ccc(C(=O)c2ccccc2)c(O)c1 [Oxybenzone],1.06,inactive: 0.718,0.862
O=C[C@H](O)[C@@H](O)[C@H](O[C@H]1O[C@H](CO)[C@@H](O[C@H]2O[C@H](CO)[C@@H](O)[C@H](O)[C@H]2O)[C@H](O)[C@H]1O)[C@H](O)CO [Maltotriose],1.04,inactive: 0.838,1.44
Clc1ccc(C(c2ccccc2Cl)C(Cl)Cl)cc1 (stereo not drawn) [Mitotane (Lsodren)],1.04,inactive: 1.2,0.773
CNC(=O)c1ccccc1Sc1ccc2c(/C=C/c3ccccn3)n[nH]c2c1,1.32,inactive: 1.48,1.28
Cc1ccc(=O)n(-c2ccccc2)c1 [Pirfenidone],0.994,inactive: 0.702,1.33
CC(=O)[C@@]1(O)CC[C@H]2[C@@H]3C[C@H](C)C4=CC(=O)CC[C@]4(C)[C@H]3CC[C@@]21C [Medroxyprogesterone],1.02,inactive: 0.992,1.44
